Some of the results follow. At the low end of the ranking the order means little.

This experiment deals with T1, GST-Rok (full length) (UniProt O34857).
T1 sequence: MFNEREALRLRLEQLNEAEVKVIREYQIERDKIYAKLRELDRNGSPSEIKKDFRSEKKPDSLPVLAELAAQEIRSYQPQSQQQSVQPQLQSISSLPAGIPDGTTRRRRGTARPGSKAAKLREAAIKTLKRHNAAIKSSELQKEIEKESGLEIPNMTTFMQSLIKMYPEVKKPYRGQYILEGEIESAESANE
Description: protein binding microarray.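 Note: rank score from −0.5 (least bound) to 0.5 (best bound).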 The conditions noted are these: Rok is a gene silencer of Bacillus subtilis; high values mean tight binding; most listed sequences are background and not binding sites; double strand, one strand shown.
Consider GATGAGCC, for which the binding signal is -0.344 E-score.

The sequence TCACGAGA came in with a binding signal of -0.235 E-score. Sequence ACCGCATA yielded a binding signal of 0.0945 E-score. GAGATTGA came in with a binding signal of 0.0297 E-score. Sequence ACGGGCGC showed a binding signal of -0.173 E-score. Consider AAAACATA, for which the binding signal amounted to 0.315 E-score. The same measure for ACCACAGA: 0.0227 E-score. As for CATCCTCC, the binding signal is -0.36 E-score. The sequence GCGCCAGA yielded a binding signal of -0.314 E-score. ATTTGACC displayed a binding signal of -0.0614 E-score. For CCCTATAA, the binding signal is 0.23 E-score. ACGGTGAC displayed a binding signal of 0.0687 E-score. The sequence CCGTATCG registered a binding signal of -0.12 E-score. CCATGAGA came in with a binding signal of -0.0139 E-score. Regarding GAAAGGAA, the binding signal is -0.276 E-score. Sequence GCGAAACC had a binding signal of -0.191 E-score. CATCCATC returned a binding signal of -0.0649 E-score. The sequence ATCTTTGC yielded a binding signal of 0.0658 E-score. In the case of AGGAATAC, the binding signal is -0.0369 E-score. In turn, ACGAATAC returned a binding signal of 0.203 E-score.

Turning to CGACTTAG, the binding signal was -0.115 E-score.

The sequence AAGGCAGC returned a binding signal of -0.0862 E-score.

With TGTACACA, the binding signal is 0.0194 E-score. With GCAATGAC, the binding signal was -0.0169 E-score. The same measure for ATGATGCC: -0.00544 E-score.

For AGCCACAT, the binding signal was -0.231 E-score.

As for TCTAATAA, the binding signal was 0.173 E-score. In turn, AAAGAACC registered a binding signal of -0.0732 E-score. The same measure for GACGGCGA: -0.287 E-score. The sequence CCACTACC registered a binding signal of -0.0072 E-score. ATGGCAGA showed a binding signal of -0.182 E-score.

GGACCTAA yielded a binding signal of -0.115 E-score. On to GATAAATA, for which the binding signal came to 0.313 E-score.

In turn, AAACCGGT yielded a binding signal of 0.0305 E-score. GTATAGGA registered a binding signal of 0.1 E-score.

ATACAGTG yielded a binding signal of 0.172 E-score. The sequence AAATTCCG returned a binding signal of 0.0155 E-score. Regarding ATCGAGCC, the binding signal was found to be 0.122 E-score. ACTGGATG showed a binding signal of -0.061 E-score.

With CCGGAGCA, the binding signal is -0.224 E-score. Sequence GCCTAACC had a binding signal of -0.173 E-score. The sequence GGCATTGA gave a binding signal of 0.0564 E-score. Regarding CTTCACGA, the binding signal was -0.3 E-score. As for CAGATGGC, the figure is -0.256 E-score. The same measure for GCTCACGA: -0.136 E-score. GCTTGAGA showed a binding signal of -0.121 E-score. As for CTCACGAG, the figure is -0.0944 E-score. Sequence CATCGCCA gave a binding signal of -0.241 E-score. With CATGGTAC, the binding signal turned out to be 0.13 E-score.

Take AAACATTC: the binding signal turned out to be 0.0507 E-score. ATCGTAGA showed a binding signal of 0.263 E-score. As for GACTAAAC, the binding signal is -0.0564 E-score. In turn, ACGGTAAT had a binding signal of 0.292 E-score. For the sequence TGGGGAAA, the binding signal is 0.0076 E-score.

ATCAAAAA had a binding signal of 0.108 E-score. The sequence CCAGCATA returned a binding signal of -0.0442 E-score.

As to AAGACGTC, the binding signal was -0.0262 E-score. CCTGCTAC gave a binding signal of -0.0435 E-score. Sequence AAACTAGC showed a binding signal of 0.362 E-score. As for GAACTCCC, the binding signal was -0.3 E-score.

In turn, CGTCCTAC showed a binding signal of 0.0907 E-score. As for CCGCGTAA, the binding signal worked out at 0.106 E-score. Sequence GCCAATAC yielded a binding signal of -0.059 E-score. AGTGAGAG had a binding signal of -0.0325 E-score. Take CGTGGTTC: the binding signal was -0.124 E-score. Sequence ACAGCGAG gave a binding signal of -0.386 E-score.

For GGTATCGA, the binding signal came to 0.0156 E-score. The same measure for ATCAAGGG: -0.165 E-score; for ACGGAGGG: -0.298 E-score; for CGAACGCA: 0.0571 E-score.

CGGAATGA displayed a binding signal of 0.0208 E-score. The sequence TCCGCACA yielded a binding signal of -0.037 E-score. The same measure for GGTTCCGA: -0.0743 E-score. GCACTTTA gave a binding signal of -0.158 E-score. For the sequence CGTGTTGA, the binding signal is -0.125 E-score. Turning to CGATGCGC, the binding signal came to 0.03 E-score.

Sequence ATGTGGTG registered a binding signal of 0.225 E-score. As to ATAAAGGG, the binding signal stood at 0.0558 E-score. Regarding ATTCCCTG, the binding signal is -0.0721 E-score. In turn, CTGTGATC registered a binding signal of 0.0619 E-score.

For the sequence CAGGCCTG, the binding signal is -0.351 E-score. For GCCCCCTA, the binding signal is -0.329 E-score. The same measure for CCTTCGCA: -0.0797 E-score. The same measure for GGTCGAGA: -0.025 E-score; for GCGCAGTA: 0.0328 E-score; for CAGATTTC: -0.079 E-score.

ATCACCGC showed a binding signal of -0.162 E-score. The same measure for ACTTAGCG: 0.178 E-score; for AATAGACA: 0.0377 E-score; for TATTTACA: 0.224 E-score. The same measure for ACTTTCAT: 0.187 E-score; for AGTGCAAA: 0.139 E-score; for AATCAAAG: -0.0118 E-score. Sequence CTCAGGTA gave a binding signal of 0.00854 E-score. The same measure for AAAGCTAT: 0.114 E-score; for CCATTGCA: 0.0693 E-score; for AACATCTG: -0.0115 E-score. The sequence AAAATGAG came in with a binding signal of 0.198 E-score. Sequence GCAGTGGC gave a binding signal of -0.258 E-score.

In the case of CCTCACGC, the binding signal is -0.124 E-score.

Sequence ATTCTTGG gave a binding signal of -0.0431 E-score. Take CCCACCAA: the binding signal is -0.143 E-score. As for AGTGGGCC, the figure is -0.331 E-score; as for CTACTTGC, 0.073 E-score. In the case of CAATATAA, the binding signal worked out at 0.213 E-score. Sequence CGACCGCC gave a binding signal of -0.333 E-score. Regarding CAACATAC, the binding signal turned out to be 0.246 E-score. As for AATTAATG, the figure is 0.198 E-score; as for TATTGTCA, 0.24 E-score; as for TAGCCCGA, -0.0153 E-score. Sequence GATCCTCA showed a binding signal of -0.166 E-score.

The sequence TTAATAAA registered a binding signal of 0.235 E-score.

ACCGTGGG displayed a binding signal of -0.252 E-score. On to AACCTGCT, for which the binding signal was -0.14 E-score.

In turn, CTCACTCC showed a binding signal of -0.163 E-score. The sequence CAATGATC showed a binding signal of 0.0311 E-score. For the sequence AAAATTTG, the binding signal worked out at 0.177 E-score. CCAGACCC returned a binding signal of -0.342 E-score. Sequence CGTGAGGA yielded a binding signal of -0.116 E-score. CCGCATCC gave a binding signal of -0.201 E-score. In turn, GTGACCTA had a binding signal of 0.0118 E-score. Take CCATAAAG: the binding signal is -0.218 E-score. As for ATTTAGAA, the binding signal amounted to 0.152 E-score.

CCACGGCG yielded a binding signal of -0.281 E-score. With GATGTAGC, the binding signal is 0.0838 E-score.

GTGTATAA gave a binding signal of 0.246 E-score.

In the case of ATATCCCG, the binding signal is -0.0367 E-score.

Sequence CAGACGCG displayed a binding signal of -0.266 E-score.

For AACTTAGA, the binding signal was determined as 0.114 E-score. Sequence AGCAGGAT returned a binding signal of -0.0321 E-score. As for AGGTCTAG, the binding signal was -0.13 E-score. In turn, ACGAGGGA yielded a binding signal of -0.261 E-score.

Take GATTACCC: the binding signal was -0.171 E-score. The sequence CGAGTTTC came in with a binding signal of 0.0534 E-score. CCTCGGGA yielded a binding signal of -0.21 E-score.

Take ATTAGACC: the binding signal was found to be 0.047 E-score. As to AACATTAG, the binding signal was 0.269 E-score.

In turn, CTTGTTCA returned a binding signal of 0.0668 E-score. Turning to CCCGTCGC, the binding signal is -0.231 E-score.

As to GTTGCGGA, the binding signal turned out to be 0.0202 E-score. For the sequence GGTTAACC, the binding signal is -0.0306 E-score. The same measure for CCGTCTAC: -0.107 E-score; for AAATTGTC: 0.121 E-score.

For AACCGCTT, the binding signal was -0.0627 E-score. The same measure for CCTGAGAG: -0.153 E-score. AAGCAGAT gave a binding signal of 0.0889 E-score.

AGTCAGAA had a binding signal of 0.0781 E-score.

In the case of GTATGATA, the binding signal came out at 0.323 E-score. The sequence AGTATACG gave a binding signal of 0.274 E-score.

CGTGAGGC showed a binding signal of -0.181 E-score. ACGCACAA returned a binding signal of -0.1 E-score. CGAGCATA showed a binding signal of 0.139 E-score.

The sequence AACTAGGA displayed a binding signal of 0.211 E-score. Regarding CACCCAAG, the binding signal was -0.249 E-score. For the sequence ATTGCTGG, the binding signal stood at 0.0752 E-score. Consider GGCTTTAC, for which the binding signal came out at 0.00573 E-score.

CAGAGCGC registered a binding signal of -0.0616 E-score. For the sequence GACGTCTA, the binding signal turned out to be 0.217 E-score. For the sequence CATAGCGA, the binding signal turned out to be 0.0421 E-score. CGCCGCAG: the binding signal was -0.275 E-score. Turning to ACCGGATC, the binding signal is -3.57e-05 E-score. ATGGCGTA: the binding signal came to 0.00897 E-score. The same measure for AAATAATC: 0.286 E-score; for ACGAGCCG: -0.365 E-score; for CATGGGCA: -0.0307 E-score. GGCCACAC showed a binding signal of -0.25 E-score. As for CCAGGTTC, the figure is -0.307 E-score. As for ATACTTTC, the figure is 0.334 E-score. The same measure for CTGGACAA: -0.0964 E-score. The sequence AAGGGCCA yielded a binding signal of -0.244 E-score. As to ATCTATTA, the binding signal worked out at 0.312 E-score. As for AAACACTG, the figure is -0.0947 E-score.

These data come from publication PMC6212790.
